Data on 29 compounds can be found in patent US11000038B2, “Pyridone compounds and agricultural and horticultural fungicides containing the same as active ingredients” (priority 2017, dated 2021).

The test system of experiment [1] is rice blast fungi (Magnaporthe grisea). It is filed as in vivo. The following applies: rice blast, spray treatment.
Experiment [2] relates to cucumber anthracnose fungi (Colletotrichum orbiculare). The experiment in a line: Test Example H: cucumber anthracnose, spray treatment of cucumber plants. The settings on record: cucumber anthracnose, 250 ppm spray, 6 to 10 days after inoculation.
Experiment [3] has as its system tomato late blight fungi (Phytophthora infestans). It is filed as in vivo. The settings on record: tomato late blight, spray treatment.

With `Cc1c(-n2cc(C)c(=O)c(C)c2-c2c(F)cc(F)cc2F)ccc(Br)c1[N+](=O)[O-]` [Compound 425], the “Test A control value” in experiment [1] is “H (H shows the control value of more than 50%)”. Besides, the “Test H control value” in experiment [2] is on record as “L (L shows the control value of 50% or less)”. Also, the “Test F control value” in experiment [3] is recorded as “L (L shows the control value of 50% or less)”.

Turning to `Cc1ccc(O)cc1-n1cc(Br)c(=O)c(Cl)c1-c1c(F)cccc1F` [Compound 426], the “Test A control value” in experiment [1] is “L (L shows the control value of 50% or less)”. Besides, in experiment [2], the “Test H control value” is “L (L shows the control value of 50% or less)”. For the same compound, the “Test F control value” in experiment [3] is “L (L shows the control value of 50% or less)”.

In the case of `COCOc1ccc(C)c(-n2cc(Br)c(=O)c(Cl)c2-c2c(F)cccc2F)c1` [Compound 427], in experiment [1], the “Test A control value” is “H (H shows the control value of more than 50%)”. The “Test H control value” in experiment [2] was “H (H shows the control value of more than 50%)”. For the same compound, the “Test F control value” in experiment [3] is recorded as “H (H shows the control value of more than 50%)”.

For the compound `Cc1ccc(OCC#N)cc1-n1cc(Br)c(=O)c(Cl)c1-c1c(F)cccc1F` [Compound 428], the “Test A control value” in experiment [1] was “H (H shows the control value of more than 50%)”. Also, the “Test H control value” in experiment [2] was “H (H shows the control value of more than 50%)”. The “Test F control value” in experiment [3] is recorded as “H (H shows the control value of more than 50%)”.

As for `C#CCOc1ccc(C)c(-n2cc(Br)c(=O)c(Cl)c2-c2c(F)cccc2F)c1` [Compound 429], the “Test A control value” in experiment [1] is given as “H (H shows the control value of more than 50%)”. Also, the “Test H control value” in experiment [2] is listed as “H (H shows the control value of more than 50%)”. In addition, the “Test F control value” in experiment [3] is “L (L shows the control value of 50% or less)”.

Take `C=CCOc1ccc(C)c(-n2cc(Br)c(=O)c(Cl)c2-c2c(F)cccc2F)c1` [Compound 430]: the “Test A control value” in experiment [1] is listed as “H (H shows the control value of more than 50%)”. The “Test H control value” in experiment [2] is recorded as “H (H shows the control value of more than 50%)”. Further, the “Test F control value” in experiment [3] is listed as “L (L shows the control value of 50% or less)”.

As to `COCCOc1ccc(C)c(-n2cc(Br)c(=O)c(Cl)c2-c2c(F)cccc2F)c1` [Compound 431], in experiment [1], the “Test A control value” is on record as “L (L shows the control value of 50% or less)”. In experiment [2], the “Test H control value” is on record as “H (H shows the control value of more than 50%)”. Further, in experiment [3], the “Test F control value” is recorded as “L (L shows the control value of 50% or less)”.

`CCOCOc1ccc(C)c(-n2cc(Br)c(=O)c(Cl)c2-c2c(F)cccc2F)c1` [Compound 432]: the “Test A control value” in experiment [1] is given as “H (H shows the control value of more than 50%)”. In experiment [2], the “Test H control value” is listed as “H (H shows the control value of more than 50%)”. Moreover, the “Test F control value” in experiment [3] is reported as “L (L shows the control value of 50% or less)”.

With `CCOc1ccc(C)c(-n2cc(Br)c(=O)c(Cl)c2-c2c(F)cccc2F)c1` [Compound 433], in experiment [1], the “Test A control value” is on record as “L (L shows the control value of 50% or less)”. Moreover, in experiment [2], the “Test H control value” was “H (H shows the control value of more than 50%)”. Further, in experiment [3], the “Test F control value” was “L (L shows the control value of 50% or less)”.

For `Cc1ccc(OC(C)C)cc1-n1cc(Br)c(=O)c(Cl)c1-c1c(F)cccc1F` [Compound 434], in experiment [1], the “Test A control value” is recorded as “L (L shows the control value of 50% or less)”. Also, in experiment [2], the “Test H control value” is “L (L shows the control value of 50% or less)”. In addition, the “Test F control value” in experiment [3] was “L (L shows the control value of 50% or less)”.

In the case of `COc1ccc(C)c(-n2cc(C)c(=O)c(C)c2-c2ccccc2)c1` [Compound 435], the “Test A control value” in experiment [1] is given as “H (H shows the control value of more than 50%)”. For the same compound, the “Test H control value” in experiment [2] is listed as “H (H shows the control value of more than 50%)”. Also, the “Test F control value” in experiment [3] is listed as “L (L shows the control value of 50% or less)”.

Regarding `COc1cccc(-n2cc(Cl)c(=O)c(Br)c2-c2c(F)cc(F)cc2F)c1C` [Compound 436], the “Test A control value” in experiment [1] is reported as “H (H shows the control value of more than 50%)”. For the same compound, in experiment [2], the “Test H control value” is recorded as “H (H shows the control value of more than 50%)”. Moreover, the “Test F control value” in experiment [3] was “H (H shows the control value of more than 50%)”.

In the case of `Cc1c(F)cccc1-n1cc(C)c(=O)c(C)c1-c1c(F)cc(F)cc1F` [Compound 437], in experiment [1], the “Test A control value” was “H (H shows the control value of more than 50%)”. For the same compound, the “Test H control value” in experiment [2] is given as “H (H shows the control value of more than 50%)”. The “Test F control value” in experiment [3] is “L (L shows the control value of 50% or less)”.

As to `Cc1c(OCC(C)C)cccc1-n1cc(Br)c(=O)c(Br)c1-c1c(F)cc(F)cc1F` [Compound 438], the “Test A control value” in experiment [1] is “L (L shows the control value of 50% or less)”. Also, the “Test H control value” in experiment [2] is given as “L (L shows the control value of 50% or less)”. Moreover, the “Test F control value” in experiment [3] is “L (L shows the control value of 50% or less)”.

Consider `Cc1cn(-c2ccccc2Cl)c(-c2c(F)cc(F)cc2F)c(C)c1=O` [Compound 439], for which, in experiment [1], the “Test A control value” is recorded as “H (H shows the control value of more than 50%)”. For the same compound, the “Test H control value” in experiment [2] is given as “H (H shows the control value of more than 50%)”. Moreover, in experiment [3], the “Test F control value” is recorded as “L (L shows the control value of 50% or less)”.

For `COc1cc(F)c(-c2c(C)c(=O)c(C)cn2-c2cccc(F)c2C)c(F)c1` [Compound 440], the “Test A control value” in experiment [1] is “H (H shows the control value of more than 50%)”. The “Test H control value” in experiment [2] is on record as “H (H shows the control value of more than 50%)”. Besides, the “Test F control value” in experiment [3] is given as “L (L shows the control value of 50% or less)”.

Turning to `Cc1cn(-c2ccccc2)c(-c2c(F)cc(F)cc2F)c(C)c1=O` [Compound 441], the “Test A control value” in experiment [1] is listed as “H (H shows the control value of more than 50%)”. In addition, the “Test H control value” in experiment [2] is “H (H shows the control value of more than 50%)”. Moreover, the “Test F control value” in experiment [3] is “L (L shows the control value of 50% or less)”.

On to `COc1cc(F)c(-c2c(C)c(=O)c(C)cn2-c2ccccc2Cl)c(F)c1` [Compound 442], for which, in experiment [1], the “Test A control value” was “H (H shows the control value of more than 50%)”. The “Test H control value” in experiment [2] was “H (H shows the control value of more than 50%)”. Further, in experiment [3], the “Test F control value” is on record as “L (L shows the control value of 50% or less)”.

Turning to `CCCc1ccccc1-n1cc(Br)c(=O)c(Cl)c1-c1c(F)cc(F)cc1F` [Compound 443], in experiment [1], the “Test A control value” is “H (H shows the control value of more than 50%)”. Moreover, the “Test H control value” in experiment [2] is given as “H (H shows the control value of more than 50%)”. Further, the “Test F control value” in experiment [3] was “L (L shows the control value of 50% or less)”.

On to `CCCc1ccccc1-n1cc(Br)c(=O)c(Br)c1-c1c(F)cc(F)cc1F` [Compound 444], for which the “Test A control value” in experiment [1] was “H (H shows the control value of more than 50%)”. Moreover, the “Test H control value” in experiment [2] is recorded as “H (H shows the control value of more than 50%)”. Moreover, the “Test F control value” in experiment [3] is recorded as “L (L shows the control value of 50% or less)”.

Take `CCCc1ccccc1-n1cc(C)c(=O)c(C)c1-c1c(F)cc(F)cc1F` [Compound 445]: the “Test A control value” in experiment [1] was “H (H shows the control value of more than 50%)”. For the same compound, the “Test H control value” in experiment [2] was “H (H shows the control value of more than 50%)”. Besides, in experiment [3], the “Test F control value” was “L (L shows the control value of 50% or less)”.

In the case of `CCCc1ccccc1-n1cc(Cl)c(=O)c(Cl)c1-c1c(F)cc(F)cc1F` [Compound 446], the “Test A control value” in experiment [1] is “H (H shows the control value of more than 50%)”. Besides, the “Test H control value” in experiment [2] is recorded as “H (H shows the control value of more than 50%)”. The “Test F control value” in experiment [3] is recorded as “L (L shows the control value of 50% or less)”.

Take `CCCc1ccccc1-n1cc(Cl)c(=O)c(Br)c1-c1c(F)cc(F)cc1F` [Compound 447]: the “Test A control value” in experiment [1] is recorded as “L (L shows the control value of 50% or less)”. Further, in experiment [2], the “Test H control value” is reported as “H (H shows the control value of more than 50%)”. In addition, the “Test F control value” in experiment [3] was “L (L shows the control value of 50% or less)”.

`Cc1ccc(F)cc1-n1cc(C)c(=O)c(C)c1-c1c(F)cccc1F` [Compound 448]: in experiment [1], the “Test A control value” was “H (H shows the control value of more than 50%)”. Further, the “Test H control value” in experiment [2] is “H (H shows the control value of more than 50%)”. The “Test F control value” in experiment [3] was “L (L shows the control value of 50% or less)”.

On to `Cc1ccc(F)cc1-n1cc(Cl)c(=O)c(Br)c1-c1c(F)cccc1F` [Compound 449], for which the “Test A control value” in experiment [1] is given as “L (L shows the control value of 50% or less)”. For the same compound, the “Test H control value” in experiment [2] is recorded as “L (L shows the control value of 50% or less)”. The “Test F control value” in experiment [3] was “L (L shows the control value of 50% or less)”.

Regarding `Cc1ccc(F)cc1-n1cc(Cl)c(=O)c(Cl)c1-c1c(F)cccc1F` [Compound 450], the “Test A control value” in experiment [1] was “H (H shows the control value of more than 50%)”. The “Test H control value” in experiment [2] was “H (H shows the control value of more than 50%)”. The “Test F control value” in experiment [3] was “L (L shows the control value of 50% or less)”.

In the case of `Cc1cccc(C)c1-n1cc(Br)c(=O)c(Br)c1-c1ccccc1` [Compound 451], the “Test A control value” in experiment [1] is given as “L (L shows the control value of 50% or less)”. In experiment [2], the “Test H control value” was “H (H shows the control value of more than 50%)”. The “Test F control value” in experiment [3] is recorded as “L (L shows the control value of 50% or less)”.

Take `Cc1cccc(C)c1-n1cc(Br)c(=O)c(Cl)c1-c1ccccc1` [Compound 452]: in experiment [1], the “Test A control value” is “L (L shows the control value of 50% or less)”. In addition, in experiment [2], the “Test H control value” is on record as “H (H shows the control value of more than 50%)”. Further, in experiment [3], the “Test F control value” is recorded as “L (L shows the control value of 50% or less)”.

With `Cc1cn(-c2ccccc2Br)c(-c2c(F)cc(F)cc2F)c(C)c1=O` [Compound 453], in experiment [1], the “Test A control value” was “H (H shows the control value of more than 50%)”. Further, the “Test H control value” in experiment [2] is “H (H shows the control value of more than 50%)”. For the same compound, in experiment [3], the “Test F control value” is reported as “L (L shows the control value of 50% or less)”.
